From the supplement of paper PMC4967469
By IC50 is meant the dose at which the fit gives 50% viability; a limit (>, <) means that the fit lies beyond the doses tested. AUC is the area under the same curve over the 256-fold range up to the top dose, as a fraction: 1 means no effect, lower means more sensitive. For part of these data: Any top dose called inferred was calculated from the reported fits. For part of these data: Where an entry number is given, a second screen of the drug exists; the two often differ.

Assays:
Experiment in all cases: Viability of human cancer cell lines after 72 h of drug (GDSC screen)
SB-715992 = compound: Cc1ccc(C(=O)N(CCCN)[C@@H](c2nc3cc(Cl)ccc3c(=O)n2Cc2ccccc2)C(C)C)cc1 [SB-715992]; settings: top dose 0.128 µM; top dose inferred
Description: (§1)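 Human cancer cell lines in 384-well plates, medium with 10% serum, drug for 72 h over a 256-fold dose range (nine 2-fold or five 4-fold steps up to the top dose). Adherent lines were fixed and stained with the nucleic acid dye Syto60, suspension lines read with resazurin; signal relative to control wells, capped at 0 and 100%. One two-parameter sigmoid per drug and line, fitted in a mixed model over all curves with the slope shared within a line.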

OSI-906 = compound: C[C@]1(O)C[C@@H](c2nc(-c3ccc4ccc(-c5ccccc5)nc4c3)c3c(N)nccn32)C1 [OSI-906]; settings: top dose 2.56 µM; top dose inferred
Description: as §1

JNJ-26854165 = compound: c1ccc2c(CCNc3ccc(Nc4ccncc4)cc3)c[nH]c2c1 [JNJ-26854165]; settings: top dose 10 µM
Description: as §1

Belinostat = compound: O=C(/C=C/c1cccc(S(=O)(=O)Nc2ccccc2)c1)NO [Belinostat]; settings: top dose 20 µM; top dose inferred
Description: as §1

NSC-207895 = compound: CN1CCN(c2ccc([N+](=O)[O-])c3no[n+]([O-])c23)CC1 [NSC-207895]; settings: top dose 20 µM; top dose inferred
Description: as §1

YM155 = compound: COCC[n+]1c2c(n(Cc3cnccn3)c1C)C(=O)c1ccccc1C2=O [YM155]; settings: top dose 5.12 µM
Description: as §1

FTI-277 = compound: COC(=O)[C@H](CCSC)NC(=O)c1ccc(NC[C@@H](N)CS)cc1-c1ccccc1 [FTI-277]; settings: top dose 1.024 µM; top dose inferred
Description: as §1

JQ1 = compound: Cc1sc2c(c1C)C(c1ccc(Cl)cc1)=N[C@@H](CC(=O)OC(C)(C)C)c1nnc(C)n1-2 [JQ1]
Description: as §1

[1] = top dose 1 µM, screen: GDSC drug entry 1218, top dose inferred
[2] = top dose 2.56 µM, screen: GDSC drug entry 163

Cell Line | AUC (SB-715992) | IC50 (SB-715992) [µM] | AUC (OSI-906) | IC50 (OSI-906) [µM] | AUC (JNJ-26854165) | IC50 (JNJ-26854165) [µM] | AUC (Belinostat) | IC50 (Belinostat) [µM] | AUC (NSC-207895) | IC50 (NSC-207895) [µM] | AUC (YM155) | IC50 (YM155) [µM] | AUC (FTI-277) | IC50 (FTI-277) [µM] | AUC (JQ1; [1]) | IC50 (JQ1; [1]) [µM] | AUC (JQ1; [2]) | IC50 (JQ1; [2]) [µM]
A204 (rhabdomyosarcoma, adherent) | 0.943 | > 0.128 | 0.97 | > 2.56 | 0.608 | 1.35 | 0.432 | 0.771 | 0.707 | 5.78 | 0.05 | < 0.02 | 0.96 | > 1.02 | 0.952 | > 1 | 0.545 | 0.221
AN3-CA (endometrium, adherent) | 0.975 | > 0.128 | 0.945 | > 2.56 | 0.926 | > 10 | 0.698 | 4.77 | 0.874 | > 20 | 0.072 | < 0.02 | 0.981 | > 1.02 | 0.963 | > 1 | 0.959 | > 2.56
BEN (non-small cell lung carcinoma, adherent) | 0.896 | > 0.128 | 0.976 | > 2.56 | 0.893 | > 10 | 0.582 | 2.17 | 0.978 | > 20 | 0.559 | 0.475 | 0.97 | > 1.02 | 0.984 | > 1 | 0.494 | 0.153
BFTC-909 (kidney, adherent) | 0.973 | > 0.128 | 0.969 | > 2.56 | 0.889 | > 10 | 0.64 | 3.01 | 0.986 | > 20 | 0.159 | 0.0297 | 0.983 | > 1.02 | 0.92 | > 1 | 0.74 | 0.759
CAMA-1 (breast, adherent) | 0.861 | > 0.128 | 0.973 | > 2.56 | 0.886 | > 10 | 0.483 | 1.11 | 0.924 | > 20 | 0.204 | 0.033 | 0.956 | > 1.02 | 0.982 | > 1 | 0.447 | 0.111
COLO-792 (melanoma, adherent) | 0.652 | 0.021 | 0.877 | 2.52 | 0.849 | 7.3 | 0.738 | 5.91 | 0.987 | > 20 | 0.542 | 0.415 | 0.982 | > 1.02 | 0.987 | > 1 | 0.887 | > 2.56
COR-L105 (lung adenocarcinoma, adherent) | 0.902 | > 0.128 | 0.95 | > 2.56 | 0.893 | > 10 | 0.425 | 0.746 | 0.947 | > 20 | 0.117 | < 0.02 | 0.98 | > 1.02 | 0.978 | > 1 | 0.412 | 0.087
EPLC-272H (lung squamous cell carcinoma, adherent) | 0.62 | 0.0179 | 0.94 | > 2.56 | 0.859 | > 10 | 0.284 | 0.28 | 0.755 | 7.59 | 0.049 | < 0.02 | 0.982 | > 1.02 | 0.972 | > 1 | 0.974 | > 2.56
GCT (soft tissue, adherent) | 0.989 | > 0.128 | 0.976 | > 2.56 | 0.851 | 6.82 | 0.946 | > 20 | 0.989 | > 20 | 0.64 | 0.758 | 0.98 | > 1.02 | 0.988 | > 1 | 0.789 | 1.04
GP5d (large intestine, adherent) | 0.688 | 0.0253 | 0.866 | 1.89 | 0.983 | > 10 | 0.423 | 0.788 | 0.976 | > 20 | 0.447 | 0.233 | 0.987 | > 1.02 | 0.99 | > 1 | 0.61 | 0.311
H2803 (mesothelioma, adherent) | 0.974 | > 0.128 | 0.889 | > 2.56 | 0.869 | > 10 | 0.459 | 0.951 | 0.985 | > 20 | 0.248 | 0.0525 | 0.96 | > 1.02 | 0.983 | > 1 | 0.748 | 0.942
H2804 (mesothelioma, adherent) | 0.985 | > 0.128 | 0.983 | > 2.56 | 0.913 | > 10 | 0.517 | 1.39 | 0.959 | > 20 | 0.155 | 0.024 | 0.985 | > 1.02 | 0.984 | > 1 | 0.77 | 1.07
H2818 (mesothelioma, adherent) | 0.989 | > 0.128 | 0.983 | > 2.56 | 0.965 | > 10 | 0.789 | 9.13 | 0.989 | > 20 | 0.775 | 2.08 | 0.966 | > 1.02 | 0.988 | > 1 | 0.489 | 0.149
HO-1-N-1 (head and neck, adherent) | 0.548 | 0.0107 | 0.987 | > 2.56 | 0.88 | 8.91 | 0.448 | 0.913 | 0.904 | > 20 | 0.023 | < 0.02 | 0.953 | > 1.02 | 0.861 | 0.734 | 0.843 | 1.59
HOP-92 (large cell lung carcinoma, adherent) | 0.977 | > 0.128 | 0.936 | > 2.56 | 0.905 | > 10 | 0.695 | 4.86 | 0.953 | > 20 | 0.116 | < 0.02 | 0.965 | > 1.02 | 0.966 | > 1 | 0.901 | > 2.56
